# Measured values from the supplement of paper PMC8728848.
# Some of the results follow.
# B1: Clec2 (Mus musculus), Q9JL99 (protein)
# chain: MQDEDGYITLNIKPRKQALSSAEPASSWWRVMALVLLISSMGLVVGLVALGIMSVTQQKYLLAEKENLSATLQQLAKKFCQELIRQSEIKTKSTFEHKCSPCATKWRYHGDSCYGFFRRNLTWEESKQYCTEQNATLVKTASQSTLDYIAERITSVRWIGLSRQNSKKDWMWEDSSVLRKNGINLSGNTEENMNCAYLHNGKIHPASCKERHYLICERNAGMTRVDQLL
# Columns and labels:
# Assay in all cases: glycan array binding signal (z-score within array); higher = stronger binding
# Conditions in all cases: glycan notation: IUPAC condensed, linker removed
# [1] = molecular target: GlcNAc(b1-3)Gal(b1-4)GlcNAc(b1-3)Gal(b1-4)GlcNAc(b1-3)Gal(b1-4)GlcNAc(b1-3)Gal(b1-4)GlcNAc(b1-2)[GlcNAc(b1-3)Gal(b1-4)GlcNAc(b1-3)Gal(b1-4)GlcNAc(b1-3)Gal(b1-4)GlcNAc(b1-3)Gal(b1-4)GlcNAc(b1-6)]Man(a1-6)[GlcNAc(b1-3)Gal(b1-4)GlcNAc(b1-3)Gal(b1-4)GlcNAc(b1-3)Gal(b1-4)GlcNAc(b1-3)Gal(b1-4)GlcNAc(b1-2)Man(a1-3)]Man(b1-4)GlcNAc(b1-4)[Fuc(a1-6)]GlcNAc
# Summary of the method: (§1)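 Glycan array data were curated from 3228 arrays in the Consortium for Functional Glycomics database and kept only where the protein sequence was available. Glycan names were converted to IUPAC-condensed notation, and columns mapping to the same glycan were averaged. The binding signal is a within-array Z-score, averaged across arrays of the same protein sequence at different concentrations or buffers and across linkers. Negative Z-scores can be read as non-binding.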
# [2] = molecular target: GlcNAc(b1-3)Gal(b1-4)GlcNAc(b1-3)Gal(b1-4)GlcNAc(b1-3)GalNAc
# Summary of the method: as §1
# [3] = molecular target: GlcNAc(b1-3)Gal(b1-4)GlcNAc(b1-3)GalNAc
# Summary of the method: as §1
# [4] = molecular target: GlcNAc(b1-3)Gal(b1-4)GlcNAc(b1-3)[GlcNAc(b1-3)Gal(b1-4)GlcNAc(b1-3)]GalNAc
# Summary of the method: as §1
# [5] = molecular target: GlcNAc(b1-3)Gal(b1-4)GlcNAc(b1-6)[Gal(b1-3)]GalNAc
# Summary of the method: as §1
# [6] = molecular target: GlcNAc(b1-3)Gal(b1-4)GlcNAc(b1-6)[GlcNAc(b1-3)Gal(b1-3)]GalNAc
# Summary of the method: as §1
# [7] = molecular target: GlcNAc(b1-3)Gal(b1-4)GlcNAc(b1-6)[GlcNAc(b1-3)]Gal(b1-4)GlcNAc
# Summary of the method: as §1
# GlcNAc(b1-3)GalNAc = molecular target: GlcNAc(b1-3)GalNAc
# Summary of the method: as §1
# GlcNAc(b1-3)Man = molecular target: GlcNAc(b1-3)Man
# Summary of the method: as §1
# [8] = molecular target: GlcNAc(b1-3)[GlcNAc(b1-4)][GlcNAc(b1-6)]GlcNAc
# Summary of the method: as §1
# [9] = molecular target: GlcNAc(b1-3)[GlcNAc(b1-6)]Gal(b1-4)GlcNAc
# Summary of the method: as §1
# [10] = molecular target: GlcNAc(b1-3)[GlcNAc(b1-6)]GalNAc
# Summary of the method: as §1
# [11] = molecular target: GlcNAc(b1-4)Gal(b1-4)GlcNAc
# Summary of the method: as §1
# GlcNAc(b1-4)GlcNAc = molecular target: GlcNAc(b1-4)GlcNAc
# Summary of the method: as §1
# [12] = molecular target: GlcNAc(b1-4)GlcNAc(b1-4)GlcNAc
# Summary of the method: as §1
# [13] = molecular target: GlcNAc(b1-4)GlcNAc(b1-4)GlcNAc(b1-4)GlcNAc(b1-4)GlcNAc
# Summary of the method: as §1
# [14] = molecular target: GlcNAc(b1-4)GlcNAc(b1-4)GlcNAc(b1-4)GlcNAc(b1-4)GlcNAc(b1-4)GlcNAc
# Summary of the method: as §1
# [15] = molecular target: GlcNAc(b1-4)[GlcNAc(b1-6)]GalNAc
# Summary of the method: as §1
# [16] = molecular target: GlcNAc(b1-6)Gal(b1-4)GlcNAc
# Summary of the method: as §1
# GlcNAc(b1-6)GalNAc = molecular target: GlcNAc(b1-6)GalNAc
# Summary of the method: as §1
# [17] = molecular target: GlcNAc6S(b1-3)Gal(b1-4)GlcNAc
# Summary of the method: as §1
# Kdn(a2-3)Gal(b1-3)GalNAc = molecular target: Kdn(a2-3)Gal(b1-3)GalNAc
# Summary of the method: as §1
# Kdn(a2-3)Gal(b1-3)GlcNAc = molecular target: Kdn(a2-3)Gal(b1-3)GlcNAc
# Summary of the method: as §1
# Kdn(a2-3)Gal(b1-4)Glc = molecular target: Kdn(a2-3)Gal(b1-4)Glc
# Summary of the method: as §1
# Kdn(a2-3)Gal(b1-4)GlcNAc = molecular target: Kdn(a2-3)Gal(b1-4)GlcNAc
# Summary of the method: as §1
# [18] = molecular target: Kdn(a2-3)Gal(b1-4)[Fuc(a1-3)]GlcNAc
# Summary of the method: as §1
# Kdn(a2-6)Gal(b1-4)GlcNAc = molecular target: Kdn(a2-6)Gal(b1-4)GlcNAc
# Summary of the method: as §1
# [19] = molecular target: Man(a1-2)Man(a1-2)Man(a1-3)Man
# Summary of the method: as §1
# [20] = molecular target: Man(a1-2)Man(a1-2)Man(a1-6)[Man(a1-3)]Man
# Summary of the method: as §1
# Man(a1-2)Man(a1-3)Man = molecular target: Man(a1-2)Man(a1-3)Man
# Summary of the method: as §1
# [21] = molecular target: Man(a1-2)Man(a1-3)[Man(a1-2)Man(a1-6)]Man
# Summary of the method: as §1
# [22] = molecular target: Man(a1-2)Man(a1-3)[Man(a1-2)Man(a1-6)]Man(a1-6)[Man(a1-2)Man(a1-2)Man(a1-3)]Man
# Summary of the method: as §1
# [23] = molecular target: Man(a1-2)Man(a1-3)[Man(a1-2)Man(a1-6)]Man(a1-6)[Man(a1-2)Man(a1-2)Man(a1-3)]Man(b1-4)GlcNAc(b1-4)GlcNAc
# Summary of the method: as §1
# [24] = molecular target: Man(a1-2)Man(a1-3)[Man(a1-6)]Man(a1-6)[Man(a1-2)Man(a1-3)]Man(b1-4)GlcNAc(b1-4)GlcNAc
# Summary of the method: as §1
# [25] = molecular target: Man(a1-2)Man(a1-6)[Man(a1-3)]Man(a1-6)[Man(a1-2)Man(a1-2)Man(a1-3)]Man
# Summary of the method: as §1
# [26] = molecular target: Man(a1-2)Man(a1-6)[Man(a1-3)]Man(a1-6)[Man(a1-2)Man(a1-2)Man(a1-3)]Man(b1-4)GlcNAc(b1-4)GlcNAc
# Summary of the method: as §1
# Man(a1-3)[Man(a1-6)]Man = molecular target: Man(a1-3)[Man(a1-6)]Man
# Summary of the method: as §1
# [27] = molecular target: Man(a1-3)[Man(a1-6)]Man(a1-6)[Man(a1-2)Man(a1-3)]Man(b1-4)GlcNAc(b1-4)GlcNAc
# Summary of the method: as §1
# [28] = molecular target: Man(a1-3)[Man(a1-6)]Man(a1-6)[Man(a1-3)]Man
# Summary of the method: as §1
# [29] = molecular target: Man(a1-3)[Man(a1-6)]Man(a1-6)[Man(a1-3)]Man(b1-4)GlcNAc(b1-4)GlcNAc
# Summary of the method: as §1
# [30] = molecular target: Man(a1-3)[Man(a1-6)]Man(b1-4)GlcNAc(b1-4)GlcNAc
# Summary of the method: as §1
# [31] = molecular target: Man(a1-3)[Man(a1-6)]Man(b1-4)GlcNAc(b1-4)[Fuc(a1-6)]GlcNAc
# Summary of the method: as §1
# Man(a1-6)Man = molecular target: Man(a1-6)Man
# Summary of the method: as §1
# Man(b1-4)GlcNAc = molecular target: Man(b1-4)GlcNAc
# Summary of the method: as §1
# MurNAc(b1-4)GlcNAc = molecular target: MurNAc(b1-4)GlcNAc
# Summary of the method: as §1
binder,measurement,setting,value
B1,glycan array binding signal (z-score),[1],-0.532
same,glycan array binding signal (z-score),[2],-0.757
same,glycan array binding signal (z-score),[3],-0.462
same,glycan array binding signal (z-score),[4],-0.342
same,glycan array binding signal (z-score),[5],-0.441
same,glycan array binding signal (z-score),[6],-0.667
same,glycan array binding signal (z-score),[7],-0.898
same,glycan array binding signal (z-score),GlcNAc(b1-3)GalNAc,-0.315
same,glycan array binding signal (z-score),GlcNAc(b1-3)Man,-0.457
same,glycan array binding signal (z-score),[8],-0.395
same,glycan array binding signal (z-score),[9],0.143
same,glycan array binding signal (z-score),[10],-0.584
same,glycan array binding signal (z-score),[11],0.033
same,glycan array binding signal (z-score),GlcNAc(b1-4)GlcNAc,-0.489
same,glycan array binding signal (z-score),[12],-0.592
same,glycan array binding signal (z-score),[13],-0.45
same,glycan array binding signal (z-score),[14],-0.123
same,glycan array binding signal (z-score),[15],-0.081
same,glycan array binding signal (z-score),[16],-0.639
same,glycan array binding signal (z-score),GlcNAc(b1-6)GalNAc,-0.52
same,glycan array binding signal (z-score),[17],-0.865
same,glycan array binding signal (z-score),Kdn(a2-3)Gal(b1-3)GalNAc,-0.377
same,glycan array binding signal (z-score),Kdn(a2-3)Gal(b1-3)GlcNAc,0.073
same,glycan array binding signal (z-score),Kdn(a2-3)Gal(b1-4)Glc,-0.279
same,glycan array binding signal (z-score),Kdn(a2-3)Gal(b1-4)GlcNAc,-0.478
same,glycan array binding signal (z-score),[18],0.043
same,glycan array binding signal (z-score),Kdn(a2-6)Gal(b1-4)GlcNAc,-0.309
same,glycan array binding signal (z-score),[19],2.06
same,glycan array binding signal (z-score),[20],-0.215
same,glycan array binding signal (z-score),Man(a1-2)Man(a1-3)Man,-0.608
same,glycan array binding signal (z-score),[21],-0.471
same,glycan array binding signal (z-score),[22],-0.487
same,glycan array binding signal (z-score),[23],0.425
same,glycan array binding signal (z-score),[24],-1.03
same,glycan array binding signal (z-score),[25],-0.755
same,glycan array binding signal (z-score),[26],-0.729
same,glycan array binding signal (z-score),Man(a1-3)[Man(a1-6)]Man,-0.605
same,glycan array binding signal (z-score),[27],-0.015
same,glycan array binding signal (z-score),[28],-0.481
same,glycan array binding signal (z-score),[29],-0.53
same,glycan array binding signal (z-score),[30],0.205
same,glycan array binding signal (z-score),[31],-0.509
same,glycan array binding signal (z-score),Man(a1-6)Man,0.911
same,glycan array binding signal (z-score),Man(b1-4)GlcNAc,-0.379
same,glycan array binding signal (z-score),MurNAc(b1-4)GlcNAc,-0.412
